PubChem BioAssay AID488969 (Vanderbilt High Throughput Screening Facility, 2010)
Several values for one entry are separate records, joined by “and”; a condition that tells them apart may be missing. Identical values can stand only once. Whole data set: some 110,000 compounds, median “z-score” near -0.1, cut for the highest 2% near 2. Some of the results follow. Activity calls are given as the source filed them.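 How the source made its calls: active means z-score in the third read window above 3 or below -3; inactive means the rest.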

The compounds below were run against Metabotropic glutamate receptor 8 (Rattus norvegicus) (UniProt P70579) (assay: mGluR8 Gi/Go-coupled signaling modulation – cell-based, rat, thallium flux, HTS, primary screen (AID 488969)). Settings: HEK293 rat mGluR8, GIRK (G protein-gated inwardly rectifying potassium channel) thallium flux, FluoZin2; at 10 µM; stronger effect = higher value; submaximal glutamate (EC20) added with thallium.
Sequence of UniProt P70579 (P70579 whole entry, looked up): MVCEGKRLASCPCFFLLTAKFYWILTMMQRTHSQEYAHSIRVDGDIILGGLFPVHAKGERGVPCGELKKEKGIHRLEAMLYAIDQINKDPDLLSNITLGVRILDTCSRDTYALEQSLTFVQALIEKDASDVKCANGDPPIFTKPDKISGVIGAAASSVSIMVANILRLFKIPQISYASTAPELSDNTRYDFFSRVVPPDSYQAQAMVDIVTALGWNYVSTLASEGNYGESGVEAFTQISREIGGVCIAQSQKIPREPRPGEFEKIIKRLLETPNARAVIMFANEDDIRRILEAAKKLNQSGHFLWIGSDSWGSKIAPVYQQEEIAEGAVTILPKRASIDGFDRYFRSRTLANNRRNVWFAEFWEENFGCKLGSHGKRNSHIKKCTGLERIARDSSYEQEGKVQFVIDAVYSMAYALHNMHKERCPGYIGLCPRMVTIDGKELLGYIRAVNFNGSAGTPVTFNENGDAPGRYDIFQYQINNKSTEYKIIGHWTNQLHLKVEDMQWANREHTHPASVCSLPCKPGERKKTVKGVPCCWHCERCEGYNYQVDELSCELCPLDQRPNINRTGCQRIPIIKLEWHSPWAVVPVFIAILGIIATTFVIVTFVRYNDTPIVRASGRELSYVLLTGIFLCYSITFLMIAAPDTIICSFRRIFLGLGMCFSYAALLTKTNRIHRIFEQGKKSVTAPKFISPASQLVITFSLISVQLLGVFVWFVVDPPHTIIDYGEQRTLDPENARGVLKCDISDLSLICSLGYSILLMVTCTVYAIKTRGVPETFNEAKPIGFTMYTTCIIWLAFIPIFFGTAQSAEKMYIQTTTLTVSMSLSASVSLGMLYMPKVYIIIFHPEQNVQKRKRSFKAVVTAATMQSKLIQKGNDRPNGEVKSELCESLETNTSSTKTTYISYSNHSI
In the case of `O=C(N/C(=C\c1cccc([N+](=O)[O-])c1)C(=O)N1CCCCC1)c1cccs1`, the z-score is reported as -0.0617.
With `CCCCOc1ccc(-c2nnn(CCC(=O)N3CCOCC3)n2)cc1` the z-score was 1.07.
`COc1ccc(-c2nn3c(-c4ccncc4)nnc3s2)cc1OC` gave a z-score of -0.146.
With `CCCCCCOc1cccc(N)c1` the z-score was -0.0965.
`O=C(NCC1COc2ccccc2O1)C1CCC(CNc2c(N3CCCCC3)c(=O)c2=O)CC1` (stereo unspecified) gave a z-score of -0.495.
Work on `Cc1ccnc(NC(=O)c2ccc(COc3ccc(Cl)cc3)o2)c1` yielded a z-score of -0.203.
In the case of `CSC1=NC(NCCCO)c2c(sc3c2CC(C)(C)OC3)N1` (stereo unspecified), the z-score is reported as -0.112.
With `Fc1ccc(N/N=C(/c2ccccc2)c2ccccn2)cc1` the z-score was -0.766.
Compound `CCc1nc(C)cc(N)c1OCc1ccccc1` has a z-score of 0.243.
Work on `Cc1ccc(C)c(Cn2nnc3c(=O)[nH]c(C4CCCN(C(=O)C5CCCCC5)C4)nc32)c1` (stereo unspecified) yielded a z-score of -0.651.
`O=C(CCCOc1ccc(Cl)cc1)N1CCCCC1` was tested, and the z-score was -0.0458.
In the case of `CCOC(=O)N1CCN(C(=O)Cn2nc(C)c3sc4ccccc4c3c2=O)CC1`, the z-score is reported as 0.298.
For `COc1cc2c(cc1OC)-c1cc(OCc3ccccc3Cl)nc(=O)n1CC2`, the z-score was -1.08.
In the case of `CCC(=O)Nc1nnc(SCc2ccc(F)cc2)s1`, the z-score is reported as -0.00764.
In the case of `Cc1ccc2cc3c(nc2c1)N(Cc1ccco1)CC3`, the z-score is reported as -0.36.
For `Cc1ccc(C2=NN(CCC(=O)NCCC(C)C)C(=O)CC2)cc1`, the z-score was -0.21.
`COc1ccccc1CCNC(=O)c1cnccn1` gave a z-score of -0.0818.
With `COc1ccc(CCNC(=O)c2ccc(-c3ccc([N+](=O)[O-])cc3Cl)o2)cc1` the z-score was -0.757.
Work on `Cc1ccc(CSc2nnc(C)c(=O)n2N)cc1` yielded a z-score of 0.071.
Work on `CC1=CC(C)(C)N(C(=O)CN2C(=O)c3ccccc3C2=O)c2ccc(C)cc21` yielded a z-score of 0.455.
`O=C1CCCC(=O)N1c1ccc(Oc2ccc(Cl)cc2)cc1` was tested, and the z-score was -0.258.
Compound `O=C(c1ccccc1)N1CCC(c2nc3c(nnn3Cc3ccccc3Cl)c(=O)[nH]2)CC1` has a z-score of -0.833.
Work on `O=C(NC(Cc1ccccc1)C(=O)Oc1ccc2c(C(F)(F)F)cc(=O)oc2c1)OCc1ccccc1` (stereo unspecified) yielded a z-score of -0.163.
`COc1ccc(OC2C(=O)N(CCc3ccc(OC)c(OC)c3)C2c2ccc3c(c2)OCO3)cc1` (stereo unspecified) was tested, and the z-score was -0.153.
`Cc1cc(/C=C2\SC(=Nc3ccccc3)NC2=O)c(C)n1-c1ccc(S(N)(=O)=O)cc1` showed a z-score of -0.304.
`CC(=C\c1ccco1)/C=C(\C#N)C(=O)NCCc1c[nH]c2ccccc12` was tested, and the z-score was -0.155.
Compound `O=C(NNC(=S)Nc1ccccc1)c1ccco1` has a z-score of -0.0375.
`CCOC(=O)Cc1csc(NC(=S)NC(=O)c2ccc([N+](=O)[O-])cc2)n1` showed a z-score of 1.72.
`CC(C(=O)Nc1ncc2c(n1)CC(C)(C)CC2=O)N1C(=O)c2ccccc2C1=O` (stereo unspecified) showed a z-score of -0.278.
`COc1cccc(CNn2c(-c3cccc(C)c3)nc3ccccc3c2=O)c1` gave a z-score of 0.147.
`CCOP(=O)(c1ccccc1)C1(C#N)CCCC1` (stereo unspecified) showed a z-score of -0.0144.
Work on `CCCS(=O)(=O)N1CCCC(C(=O)NCCN(Cc2ccccc2)C(C)C)C1` (stereo unspecified) yielded a z-score of 0.157.
`N#C/C(=N\O)c1nc(-c2ccccc2)cs1` was tested, and the z-score was 0.108 and -0.474.
Work on `Cc1nn(C2CCS(=O)(=O)C2)c(Cl)c1/C=C/C(=O)OCC(=O)Nc1ccccc1OC(F)F` (stereo unspecified) yielded a z-score of 0.0178.
Compound `CN(C)c1ccc(N=Cc2nc(-c3ccccc3)oc2OC(=O)c2cccc(Br)c2)cc1` has a z-score of 0.824.
`O=C(O)CN=C(NS(=O)(=O)c1ccccc1)c1ccccc1` was tested, and the z-score was active: 4.61.
In the case of `Cc1cccc2sc(N(CCCN(C)C)C(=O)c3sc4ccccc4c3Cl)nc12`, the z-score is reported as -0.202.
`CC1(C)Cc2c(C#N)c(N3CCN(C(=O)c4ccco4)CC3)nc(Cc3ccccc3)c2CO1` was tested, and the z-score was -0.0405.
`CCOC(=O)C(C(C)=O)c1nc(C)nc2c1nnn2Cc1ccccc1Cl` (stereo unspecified) showed a z-score of -0.462.
Work on `CCOc1ccc(-c2nnc(-c3ccccc3)n2-c2ccccc2)cc1` yielded a z-score of -0.771.
With `CCn1c(SCC(=O)c2cc(OC)ccc2OC)nnc1C1CC1` the z-score was -0.316.
In the case of `Cc1c(Br)cc(C(=O)N2CCCC2)c(C)c1C`, the z-score is reported as 0.235.
Compound `COCCN(C(=S)Nc1ccc(OC)cc1)C1CCN(C(C)C)CC1` has a z-score of -0.00881.
For `Cc1ccc(NC(=O)COC(=O)CN2C(=O)C3CCCCC3C2=O)cc1S(=O)(=O)N1CCOCC1` (stereo unspecified), the z-score was -0.265.
`COc1cc(NC2c3ccccc3C(=O)N2Cc2ccc3c(c2)OCO3)cc(OC)c1OC` (stereo unspecified) showed a z-score of -0.133.
Compound `Cc1ccc(-c2csc(NC(=O)Cc3cccs3)n2)cc1C` has a z-score of -0.106.
With `COc1ccc(-c2c(C(F)(F)F)oc3c(CN4CCN(C)CC4)c(O)ccc3c2=O)cc1` the z-score was -0.592.
Compound `C=CCn1c(-c2ccc(OC)cc2)csc1=Nc1c(C)n(C)n(-c2ccccc2)c1=O` has a z-score of -0.422.
In the case of `Cc1ccc(Nc2cc(=O)[nH]c(=O)[nH]2)c(C)c1`, the z-score is reported as -0.115.
Compound `CCCCc1ccc(NC(=O)CN2NS(=O)(=O)c3ccccc3C2=O)cc1` has a z-score of -0.197.
`CCCn1c(CNc2ccccc2O)nc2ccccc21` was tested, and the z-score was -0.473.
With `O=C(O)/C=C/c1coc2ccccc2c1=O` the z-score was -0.0918.
`CCCOc1ccc(N2C(=O)CC(NNC(=O)c3ccc(COc4ccccc4)o3)C2=O)cc1` (stereo unspecified) gave a z-score of -0.011.
`CCOc1ccc(NC(=O)Nc2ccc3c(c2)nnn3C)cc1` was tested, and the z-score was -0.355.
Compound `O=C1NC(=Nc2ccccc2)/C(=C/c2ccco2)S1` has a z-score of -0.215.
`Cc1ccc(Cl)c(OC(=O)c2ccc(N3CCOCC3)c([N+](=O)[O-])c2)c1` was tested, and the z-score was -0.352.
